# Data published in the supplement of paper PMC6746778.
# The other results are listed elsewhere or left out. Repeats are few or missing, and single values can be far off.
# Tests used:
# Test in all cases: proliferation Z-score within cell line (SRB, relative to all inhibitors screened on that line); triple-negative breast cancer lines and a kinase inhibitor library; SRB is the sulforhodamine B protein stain; higher = less growth inhibition (more resistant)
# Conditions in all cases: concentration: 1 µM; 4 days
# Bt20 = system: Bt20
# Bt549 = system: Bt549
# HCC1143 = system: HCC1143
# HCC1806 = system: HCC1806
# HCC1937 = system: HCC1937
# HCC38 = system: HCC38
# HCC70 = system: HCC70
# Hs578T = system: Hs578T
# MDA-MB-231 = system: MDA-MB-231
# MDA-MB-435s = system: MDA-MB-435s
# MDA-MB-436 = system: MDA-MB-436
# MDA-MB-453 = system: MDA-MB-453
# MDA-MB-468 = system: MDA-MB-468
# SKBR7 = system: SKBR7
# SUM1315MO2 = system: SUM1315MO2
# SUM149PT = system: SUM149PT
# SUM159PT = system: SUM159PT
# SUM185PE = system: SUM185PE
# SUM229PE = system: SUM229PE
# SUM52PE = system: SUM52PE
# 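Note: Single-dose primary screen of a 378-member kinase inhibitor library in 96-well plates, with growth read as absorbance of protein-bound SRB dye after TCA fixation.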
SMILES,proliferation Z-score within cell line (Bt20),proliferation Z-score within cell line (Bt549),proliferation Z-score within cell line (HCC1143),proliferation Z-score within cell line (HCC1806),proliferation Z-score within cell line (HCC1937),proliferation Z-score within cell line (HCC38),proliferation Z-score within cell line (HCC70),proliferation Z-score within cell line (Hs578T),proliferation Z-score within cell line (MDA-MB-231),proliferation Z-score within cell line (MDA-MB-435s),proliferation Z-score within cell line (MDA-MB-436),proliferation Z-score within cell line (MDA-MB-453),proliferation Z-score within cell line (MDA-MB-468),proliferation Z-score within cell line (SKBR7),proliferation Z-score within cell line (SUM1315MO2),proliferation Z-score within cell line (SUM149PT),proliferation Z-score within cell line (SUM159PT),proliferation Z-score within cell line (SUM185PE),proliferation Z-score within cell line (SUM229PE),proliferation Z-score within cell line (SUM52PE)
Cc1cnc(Nc2ccc(OCCN3CCCC3)cc2)nc1Nc1cccc(S(=O)(=O)NC(C)(C)C)c1,0.788,0.44,0.0932,0.548,0.237,0.648,0.755,0.566,-0.534,-0.666,-0.122,0.676,-0.227,0.314,-0.35,-0.535,0.723,-0.189,0.549,-0.211
CNC(=O)c1cc(Oc2ccc(NC(=O)Nc3cc(C(C)(C)C)nn3-c3ccc4ncccc4c3)c(F)c2)ccn1 [DCC-2036 (Rebastinib)],1.11,-0.0372,1.43,1.2,1.07,0.635,0.926,0.348,-0.707,-0.734,1.03,-0.776,1.59,0.573,-0.272,1.16,0.749,-1.4,1.23,-1.19
Cc1ccc(C(=O)Nc2ccc(CN3CCN(C)CC3)c(C(F)(F)F)c2)cc1C#Cc1cnc2[nH]ncc2c1,-0.759,-1.77,-0.596,-0.3,-1.07,-0.243,0.319,-1.49,-2.75,-2.3,-0.374,-1.5,0.238,-0.582,-2.3,-1.23,-2.81,-2.41,-1.61,-1.82
CNC(=O)CN1CCC(Oc2cc3c(Nc4cccc(Cl)c4F)ncnc3cc2OC)CC1 [AZD8931 (Sapitinib)],-0.917,0.503,-2.02,-1.61,-0.288,0.125,-1.46,0.548,0.67,0.546,-0.7,-0.914,-1.06,-0.302,0.0649,-0.699,-1.27,0.232,-0.727,-0.182
COc1cc(Nc2c(C#N)cnc3cc(OCCCN4CCN(C)CC4)c(OC)cc23)c(Cl)cc1Cl [Bosutinib (SKI-606)],-0.561,0.298,0.391,-1.7,-1.01,-0.486,-0.304,0.394,-0.0185,-0.119,-0.74,0.464,0.255,-0.265,-0.437,-0.586,0.224,0.572,-0.593,-0.083
Nc1nc(N)c2nc(-c3cccc(O)c3)c(-c3cccc(O)c3)nc2n1,0.505,0.499,0.434,0.847,0.614,0.574,0.689,0.83,0.99,0.732,0.344,0.0772,0.743,0.651,0.712,0.626,0.507,0.189,0.335,0.453
C1=N/C2=N/c3ccc(OCCN4CCCC4)c(c3)COC/C=C/COCc3cccc(c3)C(=C1)N2 [Pacritinib (SB1518)],-0.713,-0.102,-0.655,-0.844,-1.28,0.411,-0.224,-0.0537,-1.74,-1.37,-1.91,-0.988,-1.28,-1.31,-0.234,-0.369,-0.149,-1.17,-1.25,-0.771
O=C(NCCO)c1cccc(-c2cc(Nc3ccc(OC(F)(F)F)cc3)ncn2)c1,0.685,0.68,0.536,1.19,0.585,0.472,0.463,0.501,0.535,0.752,0.498,0.625,0.796,0.832,0.785,0.657,0.48,0.797,0.25,0.891
C[C@]1(O)C[C@@H](c2nc(-c3ccc4ccc(-c5ccccc5)nc4c3)c3c(N)nccn32)C1 [OSI-906 (Linsitinib)],0.503,0.251,0.469,-0.247,0.706,0.0155,0.748,0.654,-0.0903,-0.48,0.392,-0.446,0.376,-1.31,-0.355,-0.353,0.131,0.175,-0.877,0.478
CN1CCN(CCOc2cc(OC3CCOCC3)c3c(Nc4c(Cl)ccc5c4OCO5)ncnc3c2)CC1 [Saracatinib (AZD0530)],0.0557,0.731,-0.409,-2.04,-0.887,-0.39,0.516,0.41,-0.842,0.532,0.151,0.855,0.397,0.695,-0.189,0.208,0.31,1.68,-0.45,0.659
C=CC(=O)Nc1cccc(Sc2nc(Nc3ccc(N4CCN(C)CC4)cc3)ncc2Cl)c1,-0.563,0.359,0.428,-0.143,0.39,0.166,0.464,0.665,0.361,0.393,0.145,0.394,-1.02,0.631,0.15,-0.581,0.0829,0.416,-0.459,-0.334
O=C1Nc2ccc(I)cc2C1=Cc1cc(Br)c(O)c(Br)c1,0.566,0.608,0.799,1.21,0.519,0.492,0.639,0.632,-0.054,-0.0675,0.55,0.705,0.09,0.435,0.0933,0.396,0.427,0.481,0.506,0.793
COc1ccc(S(=O)(=O)N(CCO)c2ccccc2CN(C)C/C=C/c2ccc(Cl)cc2)cc1 [KN-93 Phosphate],-0.663,-0.983,-0.437,-1.39,-0.913,-2,-0.876,-1.08,0.539,0.348,-0.719,-1.71,-0.574,-0.846,-0.116,0.122,0.399,0.0465,0.0765,0.56
